Data taken from publication PMC4336329 (PLoS ONE, 2015).
The whole screen tested about 310,000 compounds, of which about 14,000 (4.5%) showed an effect of 50% or more. Effects have a minus sign here. This is one part of the list.

molecular target: human ether-à-go-go-related gene (hERG) potassium channel (human, UniProt Q12809); test: primary screen, population patch clamp on CHO cells stably expressing hERG
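Note: peak tail current of the secondary pulse compared with the same well before compound.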

Chain of human ether-à-go-go-related gene (hERG) potassium channel (Q12809 whole entry, looked up): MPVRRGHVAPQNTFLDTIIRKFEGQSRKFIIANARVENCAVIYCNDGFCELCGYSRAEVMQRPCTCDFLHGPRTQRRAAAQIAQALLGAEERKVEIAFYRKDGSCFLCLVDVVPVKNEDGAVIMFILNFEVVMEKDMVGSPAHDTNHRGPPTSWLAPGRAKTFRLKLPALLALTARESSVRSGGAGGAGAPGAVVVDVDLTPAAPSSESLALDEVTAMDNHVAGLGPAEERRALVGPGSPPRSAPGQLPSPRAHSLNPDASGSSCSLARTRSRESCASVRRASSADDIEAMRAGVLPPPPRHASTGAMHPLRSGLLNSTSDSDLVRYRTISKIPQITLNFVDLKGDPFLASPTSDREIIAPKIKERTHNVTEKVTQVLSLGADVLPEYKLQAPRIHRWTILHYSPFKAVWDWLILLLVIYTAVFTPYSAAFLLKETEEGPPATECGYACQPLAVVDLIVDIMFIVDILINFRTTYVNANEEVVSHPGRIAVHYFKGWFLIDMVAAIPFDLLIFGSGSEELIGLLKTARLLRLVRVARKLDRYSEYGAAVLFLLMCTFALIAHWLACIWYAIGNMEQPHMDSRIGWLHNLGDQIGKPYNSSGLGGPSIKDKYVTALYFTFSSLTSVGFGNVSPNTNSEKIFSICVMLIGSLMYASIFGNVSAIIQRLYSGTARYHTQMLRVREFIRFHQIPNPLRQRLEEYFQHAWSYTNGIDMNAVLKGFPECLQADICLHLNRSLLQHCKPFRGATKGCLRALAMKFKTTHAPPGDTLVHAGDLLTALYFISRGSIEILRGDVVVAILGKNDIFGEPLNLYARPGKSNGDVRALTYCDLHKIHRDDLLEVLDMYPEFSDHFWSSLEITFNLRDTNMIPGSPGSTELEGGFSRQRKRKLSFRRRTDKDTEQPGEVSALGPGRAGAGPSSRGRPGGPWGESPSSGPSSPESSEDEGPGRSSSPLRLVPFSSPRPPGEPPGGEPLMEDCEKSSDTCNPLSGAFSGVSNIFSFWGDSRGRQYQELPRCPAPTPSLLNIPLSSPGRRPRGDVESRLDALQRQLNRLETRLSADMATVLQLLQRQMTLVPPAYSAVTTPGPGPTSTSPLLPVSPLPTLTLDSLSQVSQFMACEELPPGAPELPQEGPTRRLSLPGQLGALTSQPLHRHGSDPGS

Compound | hERG current change (%, negative = inhibition) at 10uM
CCOC(=O)C(C(=O)N(C)C)c1ncc(C(F)(F)F)cc1Cl (stereo not shown) | -1.05%
O=C(N/C(=C\c1ccc([N+](=O)[O-])cc1)C(=O)N1CCOCC1)c1ccco1 | -69.2%
O=C(CSc1nnc2c(Cl)cc(Cl)cn12)N1CCOCC1 | -6.52%
Cc1ccc(NC(=O)C[n+]2ccccc2)cc1C.[Cl-] | 11.1%
COC(=O)c1cccc(N(C(=O)c2cnccn2)C(C(=O)NCc2ccccc2)c2ccco2)c1 (stereo not shown) | 3.59%
CCCCNC(=O)COC(=O)CCC(=O)c1ccc(Cl)cc1 | -3.97%
CCCc1cc(Nc2ccccc2C)n2ncnc2n1 | 1.38%
Cc1cc(Cl)ccc1Oc1ncc(CN2CCN(c3ccccc3)CC2)s1 | 7.19%
Cc1cccc(Nc2ccccc2)c1 | -10.5%
CCOC(=O)c1cnc2c(cnn2C)c1NCc1ccc(OC)cc1 | 16%
O=C(N/N=C/c1cccc(Oc2ccccc2)c1)c1ccncc1 | 14.4%
Cc1ccccc1Nc1c(-c2ccccn2)nc2ccccn12 | -8.45%
Fc1ccc(NC(=S)Nc2cccnc2)c(Cl)c1 | 16.6%
Cc1ccc(-n2c(C)nc3ccccc3c2=O)cc1C | -52.2%
Cn1ncc(Br)c1NC(=O)Nc1ccc(OC(F)(F)F)cc1 | 8.82%
O=C(COc1ccccc1/C=C1\SC(=O)NC1=O)Nc1ccc(F)cc1 | 1.31%
Cn1c(O)c(C=NC2CC(C)(C)NC(C)(C)C2)c(=O)n(C)c1=O | -4.93%
CN1CCN(/N=C/c2ccc(N(c3ccccc3)c3ccccc3)cc2)CC1.Cl | 9.14%
COc1cc(OC)cc(-c2oc(=O)c3cc(OC)c(OC)cc3c2/C=C/c2ccc(F)cc2)c1 | 4.91%
CCCn1c(SCC(=O)N2CCCC2)nc2c1c(=O)n(C)c(=O)n2C | -13.9%
O=C(Nc1cccnc1)c1c(F)cccc1F | 11.2%
COc1ccccc1N1CCN(C2CCCN(C(=O)c3oc(C)cc3C)C2)CC1 (stereo not shown) | -47.9%
Nc1ncc(Br)cc1S(=O)(=O)NCCC(=O)NCCc1ccccc1 | -2.89%

Compound | hERG current change (%, negative = inhibition) at 10uM
O=C(Cc1ccccc1)NNC(=S)Nc1ccccc1 | 16.5%
Cc1ccc(NC(=O)c2ccc3c(c2)OCCO3)cc1 | 5.67%
Nc1ccccc1SCc1c(Cl)cccc1Cl | 1.5%
COc1cc(N)ccc1NC(=O)c1cccs1 | -6.04%
Cn1c(=NC(=O)COc2ccccc2)sc2ccccc21 | -8.07%
CCSc1nc2nn(-c3ccccc3)c(=O)c-2c2n1CCCCC2 | -17.1%
CC(C)(C)NC(=O)c1cc([N+](=O)[O-])ccc1N1CCCCC1 | 6.07%
O=C(c1noc2c1CCCC2)N1CCN(c2ccc(F)cc2)CC1 | 4.41%
COC(=O)c1cc(-c2ccc(S(=O)(=O)N3CCCC3)cc2)c(C(F)(F)F)s1 | 9.67%
Cc1cc(NC(=O)CCC(=O)N(c2ccccc2)C(C(=O)NC2CCCC2)c2ccccc2C)no1 (stereo not shown) | -6.71%
CCOC(=O)C1=C(CS(=O)(=O)c2ccccc2)NC(=O)NC1c1ccccc1OCC (stereo not shown) | -4.89%
Cc1oc(-c2ccc(Cl)cc2)nc1CS(=O)CC(=O)NC1CCCCC1 (stereo not shown) | -23.7%
CCOC(=O)C1CCCN(C(=O)c2ccc(S(=O)(=O)Nc3ccccc3OC)cc2)C1 (stereo not shown) | -29.2%
Cc1ccnn1CCC(=O)N1CCCC(N2CCN(c3cccc(Cl)c3)CC2)C1 (stereo not shown) | -30.3%
COCCCNC(=O)C1CCC(CNS(=O)(=O)c2ccc(C)cc2)CC1 (stereo not shown) | 14%
CCCCC(NC(C)=O)c1nc2ccccc2n1CCCC (stereo not shown) | 5.02%
Cc1cc(OCCN2CCCCCC2)ccc1[N+](=O)[O-].O=C(O)C(=O)O | -46.2%
O=C(COC(=O)C12CC3CC(CC(O)(C3)C1)C2)NC12CC3CC(CC(C3)C1)C2 | 9.45%
N#Cc1ccc(-c2ccc(F)cc2)nc1Sc1ccccc1 | 15.5%
OCC[C@H]1C[C@@H](O)[C@H](O)[C@]2(OCCCc3ccccc32)O1 | -10.6%
COc1cccc(C(=O)OCC(=O)Nc2ccc(N3CCOCC3)cc2)c1 | 17.6%
CCCc1nc(SCC(=O)c2ccc(OC)cc2)c2ccccc2n1 | -18.5%
Cc1ccc(NC(=O)CSc2ncccn2)c([N+](=O)[O-])c1 | -5.7%

Compound | hERG current change (%, negative = inhibition) at 10uM
COc1cccc(C(C(=O)NC2CCCC2)N(C(=O)CNC(=O)c2ccco2)c2cccnc2)c1 (stereo not shown) | 12.1%
COc1ccc(CNC(=O)COc2ccc(S(=O)(=O)N3CCOCC3)cc2)cc1 | -9.37%
CCCN(Cc1nnc(-c2cccs2)o1)C(=O)CN1C(=O)NC2(CCCCC2C)C1=O (stereo not shown) | -28%
COc1ccc(NN=Nc2ccc([N+](=O)[O-])cc2)cc1 | 19.1%
c1cncc(CNc2cccc(-c3nc4ccccc4[nH]3)c2)c1 | -39.1%
CCOc1ccc2ccccc2c1CNc1nnnn1C | 5.26%
O=C(N1CCCC1)C(F)(F)Oc1ccc(F)cc1 | 17.3%
CCN1CCN(c2ccc(S(=O)(=O)N3CCOCC3)cc2NC(=O)/C=C/c2cccc(OC)c2OC)CC1 | -5.19%
Cc1ccc(OCc2n[nH]c(=S)n2-c2ccccc2)cc1 | 18.7%
CCOC(=O)/C(N=O)=C(\O)C1CCN(C(=O)OCC)CC1 | 13.2%
CCC(CC)c1nnc(NC(=O)c2ccc3c(c2)OCO3)s1 | 3.33%
Cc1c(C(=O)N2CCC3(CC2)OCCO3)sc2ncnc(N3CCN(c4ccccn4)CC3)c12 | -44.2%
CCCC12CN3CCN(C1)CC(CCC)(C3)C2=O | 9%
CSc1ccccc1C(=O)N1CCN(c2ncccn2)CC1 | 9.9%
CCCn1c(CN(C)Cc2ccccc2)nc2c1c(=O)n(C)c(=O)n2C | -23.4%
CCCN1CCN(CCCNC(=S)Nc2ccc(OC)cc2)CC1 | -22.8%
COc1ccc(N2CCN(C(=O)c3ccc4c(=O)n(CC5CCCO5)c(=O)[nH]c4c3)CC2)cc1 (stereo not shown) | 8.11%
CCOc1ccccc1C(=O)NCC(=O)OCC(=O)NCCc1ccc(S(N)(=O)=O)cc1 | 10%
O=S(=O)(c1cccc(S(=O)(=O)N2CCC(Cc3ccccc3)CC2)c1)N1CCOCC1 | -0.6%
CCOc1ccccc1-c1nc(-c2cc3ccccc3nc2OC)no1 | 0.615%
O=C(NCc1ccncc1)c1cnccn1 | 5.67%
COc1ccc(-c2cc(-c3ccc(Cl)cc3)c(C#N)c(SCC(=O)O)n2)cc1 | 4.28%
CN(C)c1ccc(/C=N/NC(N)=S)cc1[N+](=O)[O-] | 9.88%

Compound | hERG current change (%, negative = inhibition) at 10uM
CCc1nc(SCC(=O)N2CCCCC2)c2c(=O)n(C)c(=O)n(C)c2n1 | -17.8%
COC(=O)c1ccc(COc2ccccc2/C=N/NC(N)=O)o1 | 4.65%
CN1CCN(S(=O)(=O)c2cccc(C(=O)O)c2)CC1 | 10.8%
Cc1ccc(C2CC(=O)C=C(Nc3ccc(Cl)cc3)C2)cc1 (stereo not shown) | 7.93%
CCN(CC(=O)Nc1ccc2c(c1)OCCO2)C(=O)CCc1ccccc1Cl | -30.6%
Cc1ccc(N2C(=O)N(CC(=O)Nc3cc(C)cc(C)c3)C(=O)C2C)cc1 (stereo not shown) | 31.3%
COc1ccc(N2CCN(C(=O)NCc3ccc(OC)c(Cl)c3)CC2)cc1 | -8.68%
CCN(CC)c1ccc(-c2nn3c(-c4n[nH]c5c4CCC5)nnc3s2)cc1 | 2.73%
O=C(c1ccc(Br)o1)N1CCN(Cc2ccccc2Cl)CC1 | -12.6%
Clc1cc(Br)ccc1OCCOCCOc1cccc2cccnc12 | 2.91%
CC1(C)Cc2c(c(N3CCOCC3)nc3sc(C(=O)Nc4cccc(Cl)c4)c(N)c23)CO1 | 12.6%
CC(=O)Nc1ccc(OCCOc2ccccc2C(C)=O)cc1 | 7.77%
COc1ccc(C2=NN(CC(=O)NCC(OC)OC)C(=O)CC2)cc1 | -0.415%
CN1CCN(C(=O)c2cc(COc3c(F)cccc3F)on2)CC1c1ccccc1 (stereo not shown) | -38.1%
Cc1cccc(NC(=O)CCN2C(=O)c3cccc([N+](=O)[O-])c3C2=O)c1 | 10.8%
Cc1ccc(C(=O)Nc2ccc(N3CCCC3)cc2)cc1 | 16.1%
Nc1n[nH]c2ccccc12 | 20.5%
Cc1[nH]c2ccccc2c1C(=O)C(=O)NCc1cccs1 | -0.498%
Cc1cc(C)nc(N2CCC(C(=O)NC3CCCCCC3)CC2)n1 | -4.75%
CC(=O)NC1(c2ccccc2)CCN(Cc2nnnn2C(C)(C)C)CC1 | 12.4%
COCCCNC(=O)Cc1coc2ccc3ccccc3c12 | -9.15%
CC(Oc1ccc(/C=N/NC(=O)Cc2cccc3ccccc23)cc1)C(=O)O (stereo not shown) | -6.12%
